Data reported in patent publication US20090241221A1, “TANDEM REAPEAT DNA CONSTRUCTS PRODUCING PROTEINS THAT ATTACK PLANT PATHOGENIC VIRUSES, FUNGI, AND BACTERIA BY DISRUPTING TRANSCRIPTION FACTORS ESSENTIAL FOR REPLICATION THEREOF IN PLANTS” (priority 2008, published 2009).

What was measured:
[1] = tested on: Common ornamental plant cells infected by viruses; assay: Treatment of virus-infected ornamental plants; settings: viral strains not determined
[2] = tested on: pathogenic fungus present in the test tube water; assay: Resistance of Portulaca to pathogenic fungus in the test tube water; settings: continuously exposed to 6 mM PA, 10 days

Compound: O=C(O)c1ccccn1 [picolinic acid, 2-pyridine carboxylic acid]
- suppression of DnaJ-like proteins (DnaJ-like proteins): did not lead to the suppression of DnaJ-like proteins
- effect on viral disease of ornamental plants [1]: positive results (elimination of the disease leaves without any progression of the viral disease)
- root development [2]: profuse root system

Compound: CCCCc1ccc(C(=O)O)nc1 [fusaric acid, 5-butyl picolinic acid]
- effect on viral disease of ornamental plants [1]: positive results (elimination of the disease leaves without any progression of the viral disease)
